# In all, about 120,000 compounds went through this assay and about 5,300 (4.4%) were called active. Inconclusive means that the source gave no clear call. Such entries were picked first, then a sample of the others. Calls follow the shape of the dose curve; as a rule, active = well fitted inhibition curve with a large enough effect; inconclusive = small, poorly fitted or top-dose-only effect; inactive = no such curve, though single readings can be large or run the other way. Where the call is inconclusive, the potency comes from a doubtful curve fit.
# Assay: qHTS Primary assay for Inhibitors of Plasmodium falciparum Dd2 growth in vitro; also: nearly all actives have a fitted effect of over 65% in size;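 as to activity, negative = inhibition: plate controls were DMSO vehicle for no effect and reference drug for full effect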
# Details: P. falciparum Dd2 growth, SYBR Green, 72 h; activity, negative = inhibition: at 28.9 µM (top of the series) unless noted; series mostly up to 28.9 µM
# How it was run: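 Readout: SYBR Green fluorescence, 485 nm excitation, 535 nm emission, after ~16 h lysis at 37C. Before that, Dd2-infected red cells (2.5% hematocrit) grew 72 h with compound, 29 uM top final concentration.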
# Potency is read from the fitted curve at half-maximal effect; tags tell the direction and shape of the fitted curve.
SMILES,"activity, negative = inhibition",outcome,Potency
COc1ccccc1C(=O)N1CCC2(CC(C)=NO2)C1 (stereo not drawn),inactive: -12.9% [at 44.1 µM],,
COc1ccc(NC(=O)N2C[C@@H]3C[C@H](C2)c2ccc(NC(=O)c4ccc(F)cc4)c(=O)n2C3)cc1,,inactive,
COCC(=O)N1CCn2c(nn(-c3ccc([N+](=O)[O-])cc3)c2=O)C1,inactive: -0.97% [at 44.1 µM],,
COC(=O)c1ccc(CSc2nc3c([nH]c4ccccc43)c(=O)n2-c2cccc(OC)c2)o1,,,"inconclusive: 11.2 µM [inhibitor, single point]"
COc1ccc(OC)c(-c2noc(Nc3cccc(F)c3)n2)c1,,,"inconclusive: 17.8 µM [inhibitor, single point]"
Cc1ccc(C2c3cccn3CCN2S(=O)(=O)c2ccc([N+](=O)[O-])cc2)cc1 (stereo not drawn),,,"inconclusive: 3.98 µM [inhibitor, partial curve, poor fit]"
CC(C)S(=O)(=O)N1CCC2(CC1)CC(N(C)Cc1ccccc1)CCO2 (stereo not drawn),,,"inconclusive: 4.47 µM [inhibitor, partial curve, poor fit]"
CCn1cc2nc(SCc3cc(C)ccc3C)n(Cc3ccc(C)cc3)c(=O)c2n1,,,active: 10 µM
CCCOc1ccc(CN2C[C@@H](CO)[C@H](C(=O)N(C)C)C2)cc1OC,,,"inconclusive: 1.41 µM [inhibitor, partial curve, poor fit]"
Nc1c(C(=O)Nc2ccc(F)c(Cl)c2)sc2nc3c(cc12)N1CCC3CC1,,,"inconclusive: 10 µM [inhibitor, single point]"
CC(=O)N1CCC([C@@H]2CN(Cc3ccc(C(F)(F)F)cc3)C[C@H]2CO)CC1,inactive: -12.2%,,
Cc1nc(CN2C(=O)OC3(CCN(C(=O)COc4ccccc4C(N)=O)CC3)C2(C)c2ccccc2)cs1 (stereo not drawn),,,"inconclusive: 17.8 µM [inhibitor, partial curve, poor fit]"
CCCn1cc(S(=O)(=O)c2cccc(Cl)c2)c(=O)c2cc(F)c(N3CCN(CC)CC3)cc21,,,"inconclusive: 8.91 µM [inhibitor, partial curve, poor fit]"
COc1cc2[nH]c(=O)n(CCCC(=O)NCc3ccccc3Cl)c(=O)c2cc1OC,,,"inconclusive: 20 µM [inhibitor, single point]"
Cc1cc(OCCn2c(C3CC(=O)N(Cc4ccc(F)cc4)C3)nc3ccccc32)ccc1Cl (stereo not drawn),,,"inconclusive: 10 µM [inhibitor, single point]"
O=C(NCc1ccc(Cl)cc1)c1ccnc2[nH]ccc12,,,"inconclusive: 31.6 µM [inhibitor, single point]"
COc1ccc(Cl)cc1S(=O)(=O)N1CCC(OC2CCN(C)CC2)CC1,,,active: 3.16 µM
CCOc1ccc2ncc3c(-c4ccccc4)nn(CC(=O)Nc4cccc(F)c4)c3c2c1,,,"inconclusive: 0.0079 µM [inhibitor, full curve, poor fit]"
Cc1cc2ncc(C(=O)NC3CCCCC3)cn2n1,,,"inconclusive: 14.1 µM [inhibitor, partial curve, poor fit]"
Cc1ccc(C)c(N2CCN(CCCNC(=O)Cn3c(-c4cccs4)cc4ccccc43)CC2)c1,,,active: 7.94 µM
COc1ccc(-c2ccc3ncc(Nc4ccncc4)n3n2)cc1OC,,,"inconclusive: 1.26 µM [inhibitor, full curve, poor fit]"

SMILES,"activity, negative = inhibition",outcome,Potency
CC(C)c1noc([C@@H]2C[C@H]3C(=O)NCCCCCCN(C(=O)COc4ccccc4)[C@H]3C2)n1,,,"inconclusive: 2.82 µM [inhibitor, full curve, poor fit]"
COc1cccc(N2CCN(c3nc(C(=O)NCc4ccncc4)cs3)CC2)c1,,,"inconclusive: 2 µM [inhibitor, full curve, poor fit]"
Cc1ncsc1CN1CCCCCCN(C)C(=O)[C@@H]2CCC[C@@H]21,,,"inconclusive: 4.47 µM [inhibitor, partial curve, poor fit]"
CCN(C(=O)CSc1nnc(-c2ccc(Cl)cc2)o1)c1ccccc1,inactive: 5.21%,,
Cc1ccc2c(c1)nc1n2[C@@H](CNC2CCOCC2)COC1,inactive: 12.8% [at 44.1 µM],,
COCCOC(=O)C1=C(C)N=C2SC=C(CC(=O)NCc3ccco3)N2C1c1ccccc1OC (stereo not drawn),,,"inconclusive: 0.355 µM [inhibitor, full curve, poor fit]"
COc1ccc(-c2cc(C(F)(F)F)nc(S(=O)(=O)CCCC(=O)Nc3ccccc3C(F)(F)F)n2)cc1OC,,,"inconclusive: 17.8 µM [inhibitor, single point]"
COc1ccccc1CNc1nc(-c2ccco2)nn1C(=O)c1ccccc1[N+](=O)[O-],inactive: 15%,,
CCCCn1c(CCNC(=O)c2ccc(F)cc2)nc2ccccc21,,,"inconclusive: 17.8 µM [inhibitor, single point]"
Cc1ccc(C(=O)N2CCc3sc(C(=O)NCCN4CCCCCC4)cc3C2)cc1,,,"inconclusive: 3.98 µM [inhibitor, single point]"
CC(C)CNC(=O)N1CCCC(c2nc(CCOc3ccc(F)cc3)no2)C1 (stereo not drawn),,,"inconclusive: 15.8 µM [inhibitor, single point]"
COc1ccc(S(=O)(=O)N2Cc3ccccc3CC2C(=O)Nc2cccc(C)c2)cc1OC (stereo not drawn),inactive: -12.6%,,
COC(=O)[C@@H]1Cc2ncn(Cc3ccc(OC)cc3)c2CN1C(=O)CC(C)(C)CC(=O)O,,,"inconclusive: 12.6 µM [inhibitor, single point]"
COc1ccccc1N1CCN(C(c2ccccc2)c2nnc(-c3ccccc3Cl)o2)CC1 (stereo not drawn),,,"inconclusive: 10 µM [inhibitor, single point]"
CCOc1ccc(OCC)c(NC(=O)CN(c2ccc(C)cc2)S(=O)(=O)c2c(C)n[nH]c2C)c1,,,"inconclusive: 10 µM [inhibitor, single point]"
CCn1nccc1C(=O)N1CCC2(CC1)CC(OCCOC)CCO2 (stereo not drawn),,,"inconclusive: 5.01 µM [inhibitor, partial curve, poor fit]"
Cc1ccc(N2CCC(NS(=O)(=O)c3cn(C)c(C)n3)C2=O)cc1C (stereo not drawn),inactive: -6.74%,,
COc1ccc(C2CC(=O)c3c([nH]c(C(=O)OC4CCCC4)c3C)C2)cc1OC (stereo not drawn),inconclusive: -161% [inhibitor] [at 5.79 µM],,
Cc1ccc(C)c(NC(=O)C2CCCN(S(=O)(=O)c3cccc4nsnc34)C2)c1 (stereo not drawn),,,"inconclusive: 10 µM [inhibitor, partial curve]"
Cc1noc(-c2ccc(OC3CN(S(=O)(=O)c4c(C)noc4C)C3)cc2)n1,,,"inconclusive: 0.316 µM [inhibitor, single point]"
CN(C)c1ccc(CN2CCC3(C2)C(=NC2CCCC2)NC(=O)N3c2cc(F)cc(F)c2)cc1 (stereo not drawn),,,"inconclusive: 0.631 µM [inhibitor, partial curve, poor fit]"

SMILES,"activity, negative = inhibition",outcome,Potency
CCN(Cc1ccccc1)C(=O)CCc1ccc2c(c1)CN(C(=O)NC(C)C)CCO2,,,"inconclusive: 3.98 µM [inhibitor, single point]"
COc1ccc(F)c(CN2CCCC3(CCN(C(=O)C4CCCC4)C3)C2)c1 (stereo not drawn),,,"inconclusive: 17.8 µM [inhibitor, single point]"
O=C(CSCc1nc2cccnc2n1C1CCCCC1)NCc1cccc(Br)c1,,,"inconclusive: 20 µM [inhibitor, single point]"
CC1=C[C@@H](CC#N)[C@H](C(C)C)C[C@H]1CC(=O)NCc1ccc(F)cc1,,inactive [at 44.1 µM],
COc1ccccc1N1CCN(C[C@H]2CN3CC[C@H]2C[C@@H]3CNC(=O)Nc2cccc(SC)c2)CC1,,,"inconclusive: 6.31 µM [inhibitor, partial curve, poor fit]"
O=C(N[C@@H]1CCC[C@@H]1C(=O)N1CCCCCC1)c1ccncc1,,,"inconclusive: 2.24 µM [inhibitor, partial curve, poor fit]"
COc1ccc(NC2CCCN(C(=O)C(C)(C)c3ccccc3)C2)cc1 (stereo not drawn),,,"inconclusive: 6.31 µM [inhibitor, single point]"
COc1cccc(C(=O)c2sc(Nc3ccc(C)cc3C)c(S(=O)(=O)c3ccccc3)c2N)c1,,,active: 10 µM
CCc1ccc(C(=O)N2CCC(n3cnnc3-c3ccccc3)CC2)cc1,,,"inconclusive: 10 µM [inhibitor, single point]"
CCN1C(=O)c2ccccc2Sc2ccc(NC(=O)Nc3ccc(Br)c(C)c3)cc21,,,"inconclusive: 17.8 µM [inhibitor, single point]"
COc1cccc(NC(=O)C(=O)NCCc2sc(-c3cccc(C)c3)nc2C)c1,inactive: -17.4%,,
O=C1NCCCN1C1CCN(Cc2cccc3ccccc23)CC1,,,"inconclusive: 5.62 µM [inhibitor, single point]"
Clc1ccccc1C1(c2ccnc(NCCc3cccnc3)n2)CCNCC1,,,"inconclusive: 20 µM [inhibitor, single point]"
O=C(CN1CC2CC(C1)[C@H]1CCCC(=O)N1C2)NC1CCCC1 (stereo partly drawn),inactive: -0.844%,,
COCC1CN(C(C)=O)CC12CCN(S(=O)(=O)c1ccc(F)cc1)CC2 (stereo not drawn),,inactive,
CCOC(=O)c1ccc(N2C(=O)c3[nH]nc(-c4ccccc4)c3C2c2cccs2)cc1 (stereo not drawn),,,active: 7.08 µM
COc1ccc(CCNc2nc(SCc3ccccc3Cl)nc3ccccc23)cc1OC,,,active: 3.55 µM
Cc1cc(C)nc(-n2nc(C)c3c2NC(=O)CC3c2ccccc2OC(C)C)n1 (stereo not drawn),,,"inconclusive: 11.2 µM [inhibitor, single point]"
Cc1c(C(=O)OC2CCCCCC2)[nH]c2c1C(=O)CC(c1ccccc1Cl)C2 (stereo not drawn),,,active: 10 µM
Cn1c2c(c3ccccc31)CN(C(=O)Nc1ccccc1F)CC2,,,active: 11.2 µM
Cc1ccccc1NC(=O)Cn1c(=O)n(CCCCC(=O)NCc2ccccc2Cl)c(=O)c2ccccc21,,,"inconclusive: 17.8 µM [inhibitor, single point]"
